Structures are written as SMILES. In all, about 110,000 compounds went through this assay and about 230 (0.21%) showed an effect of 50% or more. Some of the results follow.
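Further: 30 min substrate incubation versus DMSO and 10 µM JCP410 controls.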

For this experiment, the target named is DPAP1 (Plasmodium falciparum, UniProt Q8IIJ9). The experiment is described as follows: primary screen, percent inhibition; read by cleavage of a fluorogenic dipeptide substrate; higher = more effect of the substance. Set-up: species or system P. falciparum D10 trophozoite lysates; single well.
Chain of DPAP1 (Q8IIJ9 whole entry, looked up): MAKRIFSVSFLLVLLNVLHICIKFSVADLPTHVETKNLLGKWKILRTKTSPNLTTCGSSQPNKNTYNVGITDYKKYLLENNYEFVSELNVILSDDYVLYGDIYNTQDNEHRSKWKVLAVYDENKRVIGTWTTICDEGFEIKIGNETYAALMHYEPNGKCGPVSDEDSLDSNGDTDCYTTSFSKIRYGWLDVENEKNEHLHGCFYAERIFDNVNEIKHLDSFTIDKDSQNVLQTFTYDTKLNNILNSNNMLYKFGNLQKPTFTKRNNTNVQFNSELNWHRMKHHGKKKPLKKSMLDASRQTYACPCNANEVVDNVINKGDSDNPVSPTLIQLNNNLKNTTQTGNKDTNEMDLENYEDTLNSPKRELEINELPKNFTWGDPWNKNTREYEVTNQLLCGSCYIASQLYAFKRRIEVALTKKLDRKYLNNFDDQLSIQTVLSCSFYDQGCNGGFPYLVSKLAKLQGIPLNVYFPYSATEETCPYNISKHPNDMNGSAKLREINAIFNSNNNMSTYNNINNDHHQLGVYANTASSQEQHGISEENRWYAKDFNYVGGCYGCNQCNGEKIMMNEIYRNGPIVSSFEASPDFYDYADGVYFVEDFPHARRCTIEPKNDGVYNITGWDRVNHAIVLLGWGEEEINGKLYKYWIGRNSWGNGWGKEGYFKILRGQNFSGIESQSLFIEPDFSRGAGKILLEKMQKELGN
With `COc1cccc(S(=O)(=O)N2CCN(C(c3ccccc3)c3ccccc3)CC2)c1`, the “% Inhibition @ 10 uM” value was -2.21%.

With `CN(C)CCCN(CCCN(C)C)Cc1cccc(C(F)(F)F)c1`, the “% Inhibition @ 10 uM” value is listed as -2.34%.

With `O=C(NCCOC(=O)c1cccc2ccccc12)c1ccccc1`, the “% Inhibition @ 10 uM” value is reported as -4.91%.

With `NS(=O)(=O)c1ccc(NC(=O)CSC2=N/C(=C/c3ccco3)C(=O)N2c2ccccc2)cc1`, the “% Inhibition @ 10 uM” value was -1.84%.

Consider `COc1ccccc1CN1COc2c(Cl)cc3c(C)c(C)c(=O)oc3c2C1`, for which the “% Inhibition @ 10 uM” value is given as 0.895%.

For `CCn1c(O)cc(=O)nc1SCc1ccc(Cl)cc1`, the “% Inhibition @ 10 uM” value is listed as 0.215%.

On to `O=S(=O)(Nc1nc2ccccc2nc1Nc1ccc(O)cc1)c1ccccc1`, for which the “% Inhibition @ 10 uM” value is given as -3.62%.

Take `CC(=O)c1ccc(-c2ccc(/C=C3/SC(=O)N(CC(=O)N4CCOCC4)C3=O)o2)cc1`: the “% Inhibition @ 10 uM” value was determined as 1.02%.

For the molecule `O=S(=O)(NCc1ccccc1Cl)c1ccc2c(c1)OCCO2`, the “% Inhibition @ 10 uM” value is -1.02%.

In the case of `O=C(Cc1ccccc1)Nc1ccccc1NC(=O)Cc1ccccc1`, the “% Inhibition @ 10 uM” value was -0.173%.

For `COc1cccc(OC)c1C(=O)Nc1cc(C(F)(F)F)ccc1Cl`, the “% Inhibition @ 10 uM” value worked out at 3.47%.

As for `O=C(Cc1ccc(F)cc1)Nc1noc2ccccc12`, the “% Inhibition @ 10 uM” value was -1.11%.

In the case of `Cc1onc(-c2c(Cl)cccc2Cl)c1C(=O)Nc1ccc2c(c1)OCO2`, the “% Inhibition @ 10 uM” value is reported as -6.74%.

In the case of `CCOc1ccc(NC(=O)CC2(c3ccccc3)C(=O)c3ccccc3C2=O)cc1`, the “% Inhibition @ 10 uM” value is reported as 0.00178%.

For `COc1ccccc1C1=NOC(C(=O)NC(C)(C)C)C1` (centres unmarked), the “% Inhibition @ 10 uM” value was found to be 3.2%.

Regarding `O=C1NN(c2ccc(Cl)c(Cl)c2)C(=O)/C1=C/c1cccs1`, the “% Inhibition @ 10 uM” value turned out to be 3.61%.

For `Cc1nc2ccc3nc(NC(=O)c4ccc(C#N)cc4)sc3c2s1`, the “% Inhibition @ 10 uM” value was -2.41%.

As for `COc1cc(-c2nnc3sc(COc4ccccc4)nn23)cc(OC)c1OC`, the “% Inhibition @ 10 uM” value is recorded as 11.7%.

`Cc1[nH]nc(O)c1C(c1c(O)n[nH]c1C)c1cn(C)c2ccccc12`: the “% Inhibition @ 10 uM” value is 4.05%.

As for `COc1ccc(N(C)S(=O)(=O)c2ccc(N3C(=O)c4ccccc4C3=O)cc2)cc1`, the “% Inhibition @ 10 uM” value is reported as 3.8%.

`Cc1ccc(NS(=O)(=O)c2ccc(Cl)cc2)cc1C`: the “% Inhibition @ 10 uM” value is -3.04%.

With `COC(=O)c1ccc(-c2ccco2)n1CC(=O)NC(C)C`, the “% Inhibition @ 10 uM” value is reported as -5.69%.

Take `Cc1cccc(NC(=O)Cn2nc(Cc3cccnc3)c3ccccc3c2=O)n1`: the “% Inhibition @ 10 uM” value is reported as -4.69%.

As for `CCN(CC)CCCNc1ccc(C2CCCC2)cc1`, the “% Inhibition @ 10 uM” value is recorded as -5.79%.

Take `COc1cccc(-c2nn(C)c3sc(C(=O)NCCC4=CCCCC4)cc23)c1`: the “% Inhibition @ 10 uM” value was found to be 10.5%.

As to `CCO/C(O)=C1/C(C)=Nc2ncnn2C1c1ccc2c(c1)OCO2` (centres unmarked), the “% Inhibition @ 10 uM” value was determined as 3.32%.

For `CC1=C(C(=O)Nc2ccccc2)C(c2cn(C)nc2C)NC(=O)N1` (centres unmarked), the “% Inhibition @ 10 uM” value is -1.88%.

With `COc1ccc(OC)c(NC(=O)CN(c2cccc(Cl)c2C)S(C)(=O)=O)c1`, the “% Inhibition @ 10 uM” value is on record as -2.75%.

Turning to `N#Cc1c(NC(=O)CSCCO)sc2c1CCCC2`, the “% Inhibition @ 10 uM” value is recorded as -5.58%.

With `CCN(CC)CC#CC(C)(O)C(C)(C)C` (centres unmarked), the “% Inhibition @ 10 uM” value turned out to be 0.912%.

As for `C=CCNc1oc(/C=C/c2ccc(F)cc2)nc1C#N`, the “% Inhibition @ 10 uM” value is reported as -4.39%.

Turning to `O=C(Nc1nnc(S(=O)(=O)N2CCCCC2)s1)C12C[C@H]3C[C@@H](C1)C[C@@H](C2)C3`, the “% Inhibition @ 10 uM” value is listed as 1.68%.

As for `Cc1ccc(C)n1-c1cccc(NC(=O)c2cccc(-n3c(C)ccc3C)c2)c1`, the “% Inhibition @ 10 uM” value worked out at 5.32%.

As for `O=C(/C=C/c1cccs1)Nc1c(C(=O)N2CCC(N3CCCCC3)CC2)oc2ccccc12`, the “% Inhibition @ 10 uM” value amounted to 4.11%.

For the molecule `Cc1n[nH]c(SCCCSc2n[nH]c(C)n2)n1`, the “% Inhibition @ 10 uM” value came out at 3.87%.

For `COc1cc(-c2nnc3sc(COc4ccccc4C)nn23)cc(OC)c1OC`, the “% Inhibition @ 10 uM” value stood at 4.28%.

Regarding `CC(=O)NC(NC(C)=O)c1ccc(Br)cc1`, the “% Inhibition @ 10 uM” value was 10.1%.

On to `Cc1ccc2c(CNCCC3=CCCCC3)c(C(=O)O)n(Cc3ccc(F)cc3)c2c1`, for which the “% Inhibition @ 10 uM” value is given as 2.56%.

For `CC(C)CCOC(=O)c1[nH]nc([N+](=O)[O-])c1[N+](=O)[O-]`, the “% Inhibition @ 10 uM” value was found to be 1.08%.

For the molecule `CCN(CC)CCCCCCOc1ccccc1`, the “% Inhibition @ 10 uM” value is on record as -0.546%.

As to `CCN(CC)CCNC(=O)C1(c2ccccc2)CCOCC1`, the “% Inhibition @ 10 uM” value came to 2.03%.

For `COc1ccc(-c2nnc3sc(NC(=O)c4cc(OC)c(OC)c(OC)c4)nn23)cc1OC`, the “% Inhibition @ 10 uM” value is 0.813%.

On to `CCN(CC)C(=O)CN(c1ccc(C)cc1)S(=O)(=O)c1ccc(C)cc1`, for which the “% Inhibition @ 10 uM” value is listed as 8.29%.

For `CN(C1CCCCC1)S(=O)(=O)c1ccc(S(=O)(=O)N(Cc2ccc(F)cc2)C2CC2)cc1`, the “% Inhibition @ 10 uM” value amounted to 0.401%.

In the case of `O=C1CCC(c2ccccc2)(C2CCN(Cc3ccccc3)CC2)C(=O)N1` (centres unmarked), the “% Inhibition @ 10 uM” value is -7.15%.

Take `Cc1ccc2[nH]c(SCC(=O)N3CCOCC3)nc2c1C`: the “% Inhibition @ 10 uM” value was 6.05%.

For `CCc1ccc(CNC(=O)CCCn2nc(C)c3c(C)n(-c4ccc(C)cc4)nc3c2=O)cc1`, the “% Inhibition @ 10 uM” value is given as -9.59%.

As to `O=C(Nc1ccc(Cl)c([N+](=O)[O-])c1)c1ccc(-c2ccccc2)cc1`, the “% Inhibition @ 10 uM” value is on record as 4.42%.

As to `CC(CNC(=O)CCCc1nnc2n(C)c(=O)c3sccc3n12)c1ccccc1` (centres unmarked), the “% Inhibition @ 10 uM” value is on record as 3.98%.

As for `CCc1ccc(CNC(=O)c2cc3cc4cc(OC)ccc4nc3o2)cc1`, the “% Inhibition @ 10 uM” value came to 1.9%.

For `N#C/C(=C/c1ccc(-c2ccccc2)cc1)c1nc(-c2ccc(Cl)cc2)cs1`, the “% Inhibition @ 10 uM” value is listed as -8.04%.

As to `CCOc1ccc(N2C(=O)NC(=O)/C(=C\c3ccc(C)o3)C2=O)cc1`, the “% Inhibition @ 10 uM” value was 4.65%.

Turning to `O=C(O)CCCN1C(=O)C2C3CC(C2C1=O)C1C(c2ccc(F)cc2)c2sc(O)nc2SC31` (centres unmarked), the “% Inhibition @ 10 uM” value is recorded as 3.24%.

In the case of `CC(NC(=O)/C(=C\c1ccco1)NC(=O)c1ccc(Br)cc1)C(=O)O` (centres unmarked), the “% Inhibition @ 10 uM” value came to 1.31%.

Consider `Cc1ccc(-c2nc(CS(=O)CC(=O)NCCN3CCCCC3C)c(C)o2)cc1` (centres unmarked), for which the “% Inhibition @ 10 uM” value is on record as 2.37%.

For the molecule `O=C([C@H](Cc1ccccc1)N1Cc2ccccc2C1=O)N1CCN(c2ccccn2)CC1`, the “% Inhibition @ 10 uM” value was -2.25%.

`Cc1cccn2c(=O)c3cc(C(=O)NCc4ccccn4)n(C)c3nc12`: the “% Inhibition @ 10 uM” value is -0.659%.

As for `Cc1c(C(=O)Nc2sc3c(c2C(=O)NCc2ccco2)CCCC3)oc2ccccc12`, the “% Inhibition @ 10 uM” value is given as -3.63%.

With `CCCCNc1cc(C)oc(=O)c1C(=O)CCC`, the “% Inhibition @ 10 uM” value was -10.1%.

Regarding `Cc1nc(/N=C(\N)NC(=O)CCN2C(=O)c3ccccc3C2=O)nc2ccccc12`, the “% Inhibition @ 10 uM” value was -0.828%.

`O=C(NCc1ccc2c(c1)OCO2)C1CCCCC1`: the “% Inhibition @ 10 uM” value is 1.13%.

Turning to `Cc1ccc(-c2cc3c4ccc(C)n4ccn3c2)cc1`, the “% Inhibition @ 10 uM” value came to 0.00178%.

The record behind these values is article PMC6919601, “Identification of Plasmodium dipeptidyl aminopeptidase allosteric inhibitors by high throughput screening” (PLoS ONE, 2019).
